Assay results reported in the supplement of paper PMC4604168 (melanoma cell lines).
Some of the results follow. Single values are uncertain, as repeats are few or missing.

How the values were obtained:
Assay in all cases: cell count relative to DMSO control; melanoma cells; higher = more viable cells
Conditions in all cases: library dose: standard library concentration; 72 h
[1] = tested on: 501Mel
[2] = tested on: A101D
[3] = tested on: A2058
[4] = tested on: A375
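Note: cells treated in 1,536-well plates, then fixed and DAPI-stained, with nuclei counted from automated high-throughput microscope images.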

| SMILES | cell count [1] | cell count [2] | cell count [3] | cell count [4] |
| --- | --- | --- | --- | --- |
| COc1cc([C@@H]2c3cc4c(cc3[C@@H](O[C@@H]3O[C@@H]5CO[C@@H](C)O[C@H]5[C@H](O)[C@H]3O)[C@H]3COC(=O)[C@H]23)OCO4)cc(OC)c1O [etoposide] + Cc1cc([N+](=O)[O-])ccc1NS(=O)(=O)c1cc(Cl)ccc1Cl [FH535] (first compound 0.1 µM, partner dose 5 µM) | 70.3% | 84% | 79% | 82.8% |
| Cn1cnc2c(F)c(Nc3ccc(Br)cc3Cl)c(C(=O)NOCCO)cc21 [selumetinib] + COc1ccc2c(c1)CCC1C2CCC2(C)C(NCCCCCCN3C(=O)C=CC3=O)CCC12 [U73122] (first compound 0.075 µM, partner dose 2 µM) | 54.7% | 51.8% | 71.4% | 89.7% |
| COc1cc([C@@H]2c3cc4c(cc3[C@@H](O[C@@H]3O[C@@H]5CO[C@@H](C)O[C@H]5[C@H](O)[C@H]3O)[C@H]3COC(=O)[C@H]23)OCO4)cc(OC)c1O [etoposide] + CCc1ccc(CCOc2ccc(CC3SC(=O)NC3=O)cc2)nc1 [pioglitazone] (first compound 0.1 µM, partner dose 10 µM) | 83.9% | 79.2% | 71.1% | 67.3% |
| CCN(CC)CCNC(=O)c1c(C)[nH]c(/C=C2\C(=O)Nc3ccc(F)cc32)c1C [sunitinib] + c1cc(-c2cnn3cc(-c4ccc(OCCN5CCCCC5)cc4)cnc23)ccn1 [Dorsomorphin] (first compound 2 µM, partner dose 2 µM) | 32.6% | 66.4% | 58.6% | 106% |
| COc1cc([C@@H]2c3cc4c(cc3[C@@H](O[C@@H]3O[C@@H]5CO[C@@H](C)O[C@H]5[C@H](O)[C@H]3O)[C@H]3COC(=O)[C@H]23)OCO4)cc(OC)c1O [etoposide] + COc1ccc(-c2ccc3c(N4CCOCC4)nc(N4C[C@@H](C)O[C@@H](C)C4)nc3n2)cc1CO [KU0063794] (first compound 0.1 µM, partner dose 0.1 µM) | 81.9% | 74% | 84.9% | 71.7% |
| COc1cc([C@@H]2c3cc4c(cc3[C@@H](O[C@@H]3O[C@@H]5CO[C@@H](C)O[C@H]5[C@H](O)[C@H]3O)[C@H]3COC(=O)[C@H]23)OCO4)cc(OC)c1O [etoposide] + c1cc(-c2cnn3cc(-c4ccc(OCCN5CCCCC5)cc4)cnc23)ccn1 [Dorsomorphin] (first compound 0.1 µM, partner dose 2 µM) | 43% | 76.1% | 53.7% | 68.4% |
| CCN(CC)CCNC(=O)c1c(C)[nH]c(/C=C2\C(=O)Nc3ccc(F)cc32)c1C [sunitinib] + CCc1ccc(CCOc2ccc(CC3SC(=O)NC3=O)cc2)nc1 [pioglitazone] (first compound 2 µM, partner dose 10 µM) | 21.8% | 74% | 60.8% | 160% |
| Cn1cnc2c(F)c(Nc3ccc(Br)cc3Cl)c(C(=O)NOCCO)cc21 [selumetinib] + CCCCCCCCCCCC1=C(O)C(=O)C=C(O)C1=O [Embelin] (first compound 0.075 µM, partner dose 6 µM) | 38.2% | 72.2% | 84.1% | 99.8% |
| Cn1cnc2c(F)c(Nc3ccc(Br)cc3Cl)c(C(=O)NOCCO)cc21 [selumetinib] + Oc1cc(-c2nc(-c3ccccc3)[nH]c2-c2ccncc2)ccc1Cl [L779450] (first compound 0.075 µM, partner dose 1 µM) | 76.8% | 62% | 67.5% | 67.5% |
| C[C@]1(O)C[C@@H](c2nc(-c3ccc4ccc(-c5ccccc5)nc4c3)c3c(N)nccn32)C1 + COc1ccc2c(c1)CCC1C2CCC2(C)C(NCCCCCCN3C(=O)C=CC3=O)CCC12 [U73122] (first compound 2 µM, partner dose 2 µM) | 97.7% | 83.8% | 62.8% | 83.7% |
| CCN(CC)CCNC(=O)c1c(C)[nH]c(/C=C2\C(=O)Nc3ccc(F)cc32)c1C [sunitinib] + COc1ccc(-c2ccc3c(N4CCOCC4)nc(N4C[C@@H](C)O[C@@H](C)C4)nc3n2)cc1CO [KU0063794] (first compound 2 µM, partner dose 0.1 µM) | 38.5% | 62.9% | 59.8% | 92.3% |
| COc1cc([C@@H]2c3cc4c(cc3[C@@H](O[C@@H]3O[C@@H]5CO[C@@H](C)O[C@H]5[C@H](O)[C@H]3O)[C@H]3COC(=O)[C@H]23)OCO4)cc(OC)c1O [etoposide] + O=C(O)C(=O)Nc1sc2c(c1C(=O)O)CCNC2 [TCS401] (first compound 0.1 µM, partner dose 8.33333 µM) | 59.2% | 76.4% | 83% | 110% |
| CCN(CC)CCNC(=O)c1c(C)[nH]c(/C=C2\C(=O)Nc3ccc(F)cc32)c1C [sunitinib] + O=c1cc(-c2cccc3c2Sc2ccccc2S3)oc(N2CCOCC2)c1 [KU55933] (first compound 2 µM, partner dose 5 µM) | 39.5% | 62.5% | 48.7% | 89.2% |
| COc1cc([C@@H]2c3cc4c(cc3[C@@H](O[C@@H]3O[C@@H]5CO[C@@H](C)O[C@H]5[C@H](O)[C@H]3O)[C@H]3COC(=O)[C@H]23)OCO4)cc(OC)c1O [etoposide] + Oc1cc(-c2nc(-c3ccccc3)[nH]c2-c2ccncc2)ccc1Cl [L779450] (first compound 0.1 µM, partner dose 1 µM) | 56.4% | 71.6% | 69.8% | 80.3% |
| Cn1cnc2c(F)c(Nc3ccc(Br)cc3Cl)c(C(=O)NOCCO)cc21 [selumetinib] + O=S(=O)(c1ccccc1)N(CC(F)(F)F)c1ccc(C(O)(C(F)(F)F)C(F)(F)F)cc1 [T0901317] (first compound 0.075 µM, partner dose 7 µM) | 41.9% | 65.3% | 94.1% | 97.3% |
| COc1cc([C@@H]2c3cc4c(cc3[C@@H](O[C@@H]3O[C@@H]5CO[C@@H](C)O[C@H]5[C@H](O)[C@H]3O)[C@H]3COC(=O)[C@H]23)OCO4)cc(OC)c1O [etoposide] + COc1ccc(COc2ccc(Cc3cnc(N)nc3N)cc2OC)cc1 [GW2580] (first compound 0.1 µM, partner dose 5 µM) | 65.8% | 89.6% | 103% | 69.7% |
| C[C@]1(O)C[C@@H](c2nc(-c3ccc4ccc(-c5ccccc5)nc4c3)c3c(N)nccn32)C1 + CCCCCCCCCCCC1=C(O)C(=O)C=C(O)C1=O [Embelin] (first compound 2 µM, partner dose 6 µM) | 78.1% | 94.2% | 88.8% | 97.7% |
| COc1cc([C@@H]2c3cc4c(cc3[C@@H](O[C@@H]3O[C@@H]5CO[C@@H](C)O[C@H]5[C@H](O)[C@H]3O)[C@H]3COC(=O)[C@H]23)OCO4)cc(OC)c1O [etoposide] + O=C(Nc1ccccc1)c1cc([N+](=O)[O-])ccc1Cl [GW9662] (first compound 0.1 µM, partner dose 10 µM) | 82.9% | 79.5% | 71.4% | 86.3% |
| Cn1cnc2c(F)c(Nc3ccc(Br)cc3Cl)c(C(=O)NOCCO)cc21 [selumetinib] + CCc1ccc(CCOc2ccc(CC3SC(=O)NC3=O)cc2)nc1 [pioglitazone] (first compound 0.075 µM, partner dose 10 µM) | 44.2% | 73.5% | 103% | 83.9% |
| Cn1cnc2c(F)c(Nc3ccc(Br)cc3Cl)c(C(=O)NOCCO)cc21 [selumetinib] + c1cc(-c2cnn3cc(-c4ccc(OCCN5CCCCC5)cc4)cnc23)ccn1 [Dorsomorphin] (first compound 0.075 µM, partner dose 2 µM) | 47.3% | 76.9% | 90.8% | 110% |
| Cn1cnc2c(F)c(Nc3ccc(Br)cc3Cl)c(C(=O)NOCCO)cc21 [selumetinib] + O=C1NC(=O)/C(=C/c2ccc(-c3ccc(F)cc3O)o2)S1 [AS252424] (first compound 0.075 µM, partner dose 5 µM) | 36.6% | 70.2% | 102% | 63% |
| CCN(CC)CCNC(=O)c1c(C)[nH]c(/C=C2\C(=O)Nc3ccc(F)cc32)c1C [sunitinib] + Cn1cc(/C=C2\C(=O)Nc3cccnc32)c2ccccc21 [GW441756] (first compound 2 µM, partner dose 2 µM) | 28.4% | 63.7% | 65% | 92.1% |
| Cn1cnc2c(F)c(Nc3ccc(Br)cc3Cl)c(C(=O)NOCCO)cc21 [selumetinib] + COC(=O)c1sccc1S(=O)(=O)Nc1ccc(Nc2ccccc2)cc1OC [GSK0660] (first compound 0.075 µM, partner dose 5 µM) | 47% | 69.4% | 99.8% | 88.9% |
| CCN(CC)CCNC(=O)c1c(C)[nH]c(/C=C2\C(=O)Nc3ccc(F)cc32)c1C [sunitinib] + Cc1cc([N+](=O)[O-])ccc1NS(=O)(=O)c1cc(Cl)ccc1Cl [FH535] (first compound 2 µM, partner dose 5 µM) | 29.1% | 66% | 60.4% | 78.2% |
| CCN(CC)CCNC(=O)c1c(C)[nH]c(/C=C2\C(=O)Nc3ccc(F)cc32)c1C [sunitinib] + Oc1nc(-c2ccc(C(F)(F)F)cc2)nc2c1CSCC2 [XAV939] (first compound 2 µM, partner dose 10 µM) | 29.7% | 64.1% | 61.5% | 106% |
| COc1cc([C@@H]2c3cc4c(cc3[C@@H](O[C@@H]3O[C@@H]5CO[C@@H](C)O[C@H]5[C@H](O)[C@H]3O)[C@H]3COC(=O)[C@H]23)OCO4)cc(OC)c1O [etoposide] + COc1cc(N2CCC(N3CCN(C)CC3)CC2)ccc1Nc1ncc(Cl)c(Nc2ccccc2S(=O)(=O)C(C)C)n1 [NVP-TAE684] (first compound 0.1 µM, partner dose 0.4 µM) | 115% | 95.4% | 49.6% | 77.4% |
